About 6,400 (1.6%) of roughly 410,000 compounds were called active. Inconclusive results, whose numbers are uncertain, are shown with a selection of clear calls. The call rests on the fitted dose curve; in most records, active means well fitted inhibition curve with a large enough effect; inconclusive means small, poorly fitted or top-dose-only effect; inactive means no such curve, though single readings can be large or run the other way. No potency is given beside an inconclusive call; the fits are too rough.
These molecules were tested against Glucagon-like peptide 1 receptor (Homo sapiens) (UniProt P43220) (assay: qHTS of GLP-1 Receptor Inverse Agonists (Inhibition Mode)). Details: HEK293 GLP-1R CRE-luciferase, luminescence, 24 h, GLP-1R form is constitutively active; series mostly up to 38.3 µM.
UniProt P43220, sequence (P43220 whole entry, looked up): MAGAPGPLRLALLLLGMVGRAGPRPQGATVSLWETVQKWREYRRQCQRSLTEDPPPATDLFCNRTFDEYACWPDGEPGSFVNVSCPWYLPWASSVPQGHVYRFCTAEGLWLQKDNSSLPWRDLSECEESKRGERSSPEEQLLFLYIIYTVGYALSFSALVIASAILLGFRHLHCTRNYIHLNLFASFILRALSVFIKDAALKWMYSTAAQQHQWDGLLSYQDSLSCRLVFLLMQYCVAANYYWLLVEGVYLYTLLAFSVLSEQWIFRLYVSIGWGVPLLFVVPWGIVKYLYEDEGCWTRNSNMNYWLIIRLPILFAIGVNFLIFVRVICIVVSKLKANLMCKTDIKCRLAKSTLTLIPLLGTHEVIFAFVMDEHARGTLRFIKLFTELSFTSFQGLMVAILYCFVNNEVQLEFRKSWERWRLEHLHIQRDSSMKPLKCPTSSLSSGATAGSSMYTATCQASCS
Summary of the method: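 Stable HEK293 clone (constitutively active GLP-1R + cAMP-response luciferase); 200 cells/uL plated, 12 h pre-culture, compound 24 hr, 37 deg C/5% CO2; detection reagent 12 min RT; luminescence.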
Further: nearly all actives have a fitted effect of over 55% in size.
Potency means the concentration at half of the fitted maximal effect; tags describe the fitted curve by direction and shape.

Compound	Potency
S=C(NCC1CCCO1)Nc1ccc(Cl)c(Cl)c1 (stereo not given)	inconclusive [inhibitor, single point]
COc1ccc(C(C(=O)NCc2ccccc2)n2c(=O)c(-c3ccco3)nc3ccccc32)cc1 (stereo not given)	inconclusive [inhibitor, single point]
COc1ccc(C[C@H]2CN3C(=NC[C@@H]3Cc3ccc(O)cc3)N2C[C@H](C)NC(=O)c2ccc(C)c(Br)c2)cc1	inconclusive [inhibitor, partial curve, poor fit]
O=C(COC(=O)c1cccc([N+](=O)[O-])c1)c1ccc(OCc2ccccc2)cc1	inactive
CC(C(=O)Nc1ccccc1F)N1CCN(S(=O)(=O)c2ccc(C(F)(F)F)cc2)CC1 (stereo not given)	inconclusive [inhibitor, single point]
COc1ccc(OCCn2c(=N)n(CCO)c3ccccc32)cc1	inconclusive [inhibitor, partial curve, poor fit]
CC1C=CC=CC=CC=CC=CC=CC=CC(OC2OC(C)C(O)C(N)C2O)CC2OC(O)(CC(O)CC(O)C(O)CCC(O)CC(O)CC(=O)OC(C)C(C)C1O)CC(O)C2C(=O)O (stereo not given)	inconclusive [inhibitor, full curve, poor fit]
Cc1oc2c(c1C(=O)NCc1cccnc1)C(=O)c1ccccc1C2=O	active: 3.16 µM
O=C(Nc1ccccc1)N(C1=NCCC1)c1ccc(OC(F)F)cc1	inconclusive [inhibitor, partial curve, poor fit]
C=CCOC(=O)C1=C(C)NC(=S)NC1/C=C/c1ccccc1 (stereo not given)	inconclusive [inhibitor, single point]
CCN(CCNS(=O)(=O)c1ccc2[nH]c(=O)sc2c1)c1ccccc1	inconclusive [inhibitor, single point]
COc1ccccc1CNS(=O)(=O)c1ccc(-n2cnnn2)c(OC)c1	inactive
CC(C)CCCNc1nc(N2CCOCC2)nc(N2CCOCC2)n1	inconclusive [inhibitor, partial curve, poor fit]
COc1ccc(NS(=O)(=O)c2csc(C(=O)N3CCCC3)c2)cc1	inconclusive [inhibitor, single point]
CCOc1ccc(CN(C)CC(O)COC(c2ccc(OC)cc2)c2ccc(OC)cc2)cc1 (stereo not given)	inconclusive [inhibitor, partial curve, poor fit]
COc1ccc(/C=C/C(=O)NC(=S)NNC(=O)[C@H]2C[C@@H]2c2ccccc2)cc1OC	inactive
O=C(CSc1nc(-c2cccs2)cc(C(F)(F)F)n1)Nc1ccccc1Cl	inactive
O=C(c1ccc(F)cc1)C1CCN(C(=S)Nc2ccc(F)cc2)CC1	inconclusive [inhibitor, single point]
Cc1ccccc1N(CC(=O)NCCc1ccccc1)C(=O)c1ccc(N2CCCC2)nc1	inconclusive [inhibitor, single point]
Cc1cc(C)n(CCC(=O)N=Nc2c(O)[nH]c3ccc(Br)cc23)n1	inconclusive [inhibitor, partial curve, poor fit]

Compound	Potency
O=C(N/N=C/c1ccc(Cl)cc1)C1CC12CCC2 (stereo not given)	inconclusive [inhibitor, partial curve, poor fit]
Cc1cc(C)c(C)c(S(=O)(=O)N2CCC(C(=O)NCC(c3ccccc3)N(C)C)CC2)c1C (stereo not given)	inconclusive [inhibitor, partial curve, poor fit]
O=C(CCS(=O)(=O)c1ccccc1)Nc1nc2c(s1)CCCC2	inconclusive [inhibitor, single point]
CCCOc1ccc(CNC(=O)c2cc3oc4ccccc4c3n2C)cc1	inconclusive [inhibitor, full curve]
COc1ccc(S(=O)(=O)Nc2cc(C)ccn2)cc1	inactive
Nc1nnc(CSCc2ccc(F)cc2)s1	inactive
Cc1ccc(Sc2cc(C(=O)NCCN(C)C)c3ccccc3n2)cc1	inconclusive [inhibitor, partial curve]
COc1cccc(C2NC(=S)NC(C)=C2C(=O)c2ccccc2)c1OC (stereo not given)	inconclusive [inhibitor, full curve, poor fit]
O=C(Nc1nc2ccccc2[nH]1)c1cccc(Cl)c1	inconclusive [inhibitor, single point]
O=C1C(Cl)=C(NC2CCCCC2)C(=O)N1Cc1ccccc1	inconclusive [inhibitor, single point]
N#CCCN(C(=S)Nc1ccc(Cl)c(Cl)c1)C1CCCCC1	inconclusive [inhibitor, partial curve, poor fit]
Oc1ccc(Cl)cc1CNc1cccc2cccnc12	inconclusive [inhibitor, single point]
Cc1cccnc1C(NC(=O)C1CCN(Cc2ccccc2)CC1)c1ccc(F)cc1 (stereo not given)	inconclusive [inhibitor, single point]
Cc1ccc(S(=O)(=O)NCC(c2ccccc2)N2CCN(c3ccc(F)cc3)CC2)cc1 (stereo not given)	inconclusive [inhibitor, partial curve]
C[C@@H]1C[C@H]2[C@@H]3CCC4=CC(=O)C=C[C@]4(C)[C@@]3(F)[C@@H](O)C[C@]2(C)[C@H]1C(=O)CO	inconclusive [inhibitor, full curve, poor fit]
FC(F)(F)c1nnc2c3ccccc3c(Cl)nn12	inconclusive [inhibitor, full curve, poor fit]
COc1ccc(C)cc1S(=O)(=O)N1CCCCCC1	inconclusive [inhibitor, partial curve]
Cc1cc(C)c(NC(=O)C2CCCN2CCOC(=O)c2ccccc2)c(C)c1 (stereo not given)	inconclusive [inhibitor, partial curve, poor fit]
Cc1ccc(CC(=O)O/N=C(\N)c2ccccn2)cc1	inactive
CCN(CC)CCNC(=O)c1ccc(NC(=O)c2ccc(-n3cncn3)c([N+](=O)[O-])c2)cc1	inconclusive [inhibitor, single point]

Reference: PubChem BioAssay AID624417 (National Center for Advancing Translational Sciences (NCATS), 2012)
